# Assay results taken from PubChem BioAssay AID686979 (National Center for Advancing Translational Sciences (NCATS), 2013).
# Values joined by “and” are separate entries in the source; they are usually repeats but may differ in a detail not shown here. Identical values can stand only once. The whole screen tested about 420,000 compounds, of which about 50,000 (12%) were called active. The shares of active, inactive and inconclusive entries below differ from those in the screen. The call rests on the fitted dose curve; in most records, active means well fitted inhibition curve with a large enough effect; inconclusive means small, poorly fitted or top-dose-only effect; inactive means flat fitted curve, though single readings scatter. Potencies of inconclusive entries are doubtful fits and often do not repeat.
# Assay: qHTS for Inhibitors of human tyrosyl-DNA phosphodiesterase 1 (TDP1): qHTS in cells in presence of CPT; further: nearly all actives have a fitted effect of over 55% in size
# Details: chicken DT40 Tdp1-/-;hTDP1 cells + 20 nM CPT, ATP luminescence, 48 h; activity change, negative = growth inhibition: at 46.2 µM (top of the series) unless noted
# In short: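 Chicken DT40 Tdp1-/- cells stably complemented with human TDP1 were seeded at 400 cells/well in medium containing 20 nM camptothecin, exposed to pin-transferred compounds, and grown at 37 °C for at least 48 hr. Viability was read as ATP luminescence.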
# On the % scale 0 is the no-effect control and ±100 the full control effect; potency means the concentration at half of the fitted maximal effect; tags describe the fitted curve by direction and shape.
Compound,Potency,"activity change, negative = growth inhibition"
CCOc1ccc(/C=N/OCC(=O)NCc2ccco2)cc1,"inconclusive: 29.1 µM [inhibitor, single point]",
Cc1nn(-c2ccccc2)c(/N=C/c2ccc(O)cc2)c1-c1ccccc1,,inconclusive: -32.7% [inhibitor]
O=C(Cc1cccc(NC(=O)C2CCN(C(=O)C3CCCC3)CC2)c1)Nc1cccc(C(=O)N2CCCCC2)c1,inactive,
COc1ccccc1CC(=O)N1CCCc2ccccc21,"inconclusive: 29.1 µM [inhibitor, single point]",
O=C1c2ccc(-c3nc4ccccc4o3)cc2C(=O)N1Cc1ccccc1,inactive,
COc1ccc(S(=O)(=O)N2CCN(C(=O)c3ccc([N+](=O)[O-])o3)CC2)cc1,active: 10.3 µM,
CCOC(=O)C(CC)Sc1ccc2nnc(-c3ccc(F)cc3)n2n1 (stereo not given),active: 20 µM,
Cc1ccc(S(=O)(=O)N(C)c2ccccc2C(=O)N2CCOCC2)cc1,inactive,
COc1ccc(C2=CN(Cc3ccccc3)C(c3ccccc3)CC2=O)cc1 (stereo not given),"inconclusive: 29.1 µM [inhibitor, single point]",
COc1ccc(C)cc1N(C(=O)c1ccco1)C(C(=O)NC1CCCC1)c1cc(OC)c(OC)c(OC)c1 (stereo not given),inactive,
Cn1c2ccccc2c2cc(/C=N/NC(=O)c3ccc(N)cc3)ccc21,"inconclusive: 18.4 µM [inhibitor, single point]",
CCc1nnc(NC(=O)CSc2nc3c([nH]c4ccccc43)c(=O)n2-c2cc(C)cc(C)c2)s1,"inconclusive: 18.4 µM [inhibitor, single point]",
CCCCn1c(=O)[nH]c(=O)c2c1nc(-c1ccccn1)n2CC,inactive,
CCOC(=O)N1CCN(C(=O)C[C@@H]2C[C@@]3(C(=O)OC)CCCCC=C3N(CCC3=CCCCC3)C2=O)CC1,"inconclusive: 29.1 µM [inhibitor, single point]",
CC1CCCCN1Cc1c(O)ccc2c(=O)c(-c3cccc(Cl)c3)c(C(F)(F)F)oc12 (stereo not given),inactive,
Cc1ccc(-n2nnnc2SCC(=O)Nc2cc(C)on2)c(C)c1,inactive,
Cc1oc2c(C)c(O)ccc2c(=O)c1-c1ccc2ccccc2n1,inactive,
Cc1ccc(NC(=O)c2ccc3nc[nH]c3c2)c(O)c1,inactive,
O=S(=O)(/C=C/c1ccccc1)N1CCC(n2c(C3CCCO3)nc3cccnc32)CC1 (stereo not given),,inactive: 10.9% [at 9.04 µM]
CC(I)CCC(C)[n+]1cccc(I)c1 (stereo not given),inactive,
COc1ccc(C(=O)N2CCCC(c3nc(-c4cc(OC)c(OC)c(OC)c4)no3)C2)cc1 (stereo not given),active: 20.6 µM,
Cc1cc(-c2ccco2)c(C#N)c2nc3ccccc3n12,active: 14.6 µM,
Cc1ccc(NC(=O)N/C=C/c2ccc(Cl)cc2)cc1,"inconclusive: 23.1 µM [inhibitor, single point]",
COc1ccc(-n2ncc3c(N4CCN(c5cccc(C)c5)C(C)C4)ncnc32)cc1 (stereo not given),active: 2.91 µM,
Cc1nnc(SCc2cc(=O)n3c(C)cccc3n2)s1,inactive,

Compound,Potency,"activity change, negative = growth inhibition"
CCOC(=O)CNc1c(-c2ccc(O)cc2)nc2ccc(Cl)cn12,,inconclusive: -37.7% [inhibitor]
Clc1cccc(CNc2ncnc3c2nc2n3CCCC2)c1,"inconclusive: 20.6 µM [inhibitor, single point]",
CN(c1ccc(OCC(=O)Nc2ccc3[nH]c(=O)[nH]c3c2)cc1)S(=O)(=O)c1ccc(Cl)cc1,,inconclusive: -30.3% [inhibitor]
O=C1CSC(c2ccc([N+](=O)[O-])cc2)N1c1ccccc1 (stereo not given),inactive,
CCn1c2ccccc2c2cc(NC(=O)c3cc(OC)c(OC)c(OC)c3)ccc21,active: 1.3 µM,
O=C(C1CCC(CNS(=O)(=O)c2ccc(Br)s2)CC1)N1CCN(c2ccccc2)CC1 (stereo not given),active: 4.61 µM,
O=C(NCc1cccs1)C1CCN(S(=O)(=O)c2ccc(Br)s2)CC1,"inconclusive: 20.6 µM [inhibitor, single point]",
Cc1ccc(C2=CC(=O)C[C@H](c3ccc4c(c3)OCO4)C2)cc1,"inconclusive: 20.6 µM [inhibitor, single point]",
Cc1ccc(CN=C(N)Nc2nc(C)cc(C)n2)cc1,active: 6.51 µM,
O=C1C(=O)c2ccccc2C(O)=C1C1CCC(c2ccc(Cl)cc2)CC1 (stereo not given),"inactive and inconclusive: 6.51 µM [inhibitor, single point]",
C=C1C=C(C)n2ncc(C(=O)Nc3cccc4cnccc34)c2N1,active: 15.8 µM,
CCOC(=O)Cc1csc(NC(=O)c2ccncc2)n1,"inconclusive: 16.4 µM [inhibitor, partial curve]",
CCOC(=O)c1ccc(NC(=S)NCc2ccc(F)cc2)cc1,"inconclusive: 25.9 µM [inhibitor, single point]",
Cc1ccc(-c2noc(COc3ccc(Br)c(C)c3)n2)cc1,inactive,
COc1ccc(-n2nc(C(=O)NCC(=O)Nc3cc(C)ccc3OC)c3ccccc3c2=O)c(OC)c1,"inconclusive: 20.6 µM [inhibitor, single point]",
O=C(OCc1cccc([N+](=O)[O-])c1)c1ccc[nH]c1=O,inactive,
COc1cccc(CNC(=O)COC(=O)c2ccc(-c3ccc(O)cc3)cc2)c1,"inconclusive: 0.82 µM [inhibitor, partial curve, poor fit]",
CN(C)c1ccc(/C=C/c2ccnc3c(O)ccc(O)c23)cc1,inactive,
Cc1cccc(C)c1OCC(=O)Nc1ccncc1,"inconclusive: 29.1 µM [inhibitor, partial curve]",
Cc1ccc(C)c(OCc2cc(C(=O)N3CCN(c4ccccc4C)CC3C)no2)c1 (stereo not given),"inconclusive: 29.1 µM [inhibitor, single point]",
CCCCn1c(N)c(-c2nc3ccccc3o2)c2c([N+](=O)[O-])nn(C)c(=O)c21,inactive,
CCCOC(=O)c1ccc(NC(=O)c2cc(OC)c(OC)c(OC)c2Br)cc1,"inconclusive: 29.1 µM [inhibitor, single point]",
CCOc1ccc(N(CC(=O)Nc2cccc(Br)c2)S(C)(=O)=O)cc1,"inconclusive: 16.4 µM [inhibitor, single point]",
Clc1ccc2nc(-c3ccc(Br)s3)cn2c1,"inconclusive: 29.1 µM [inhibitor, single point]",
C=CCc1c(C)nc2cc(-c3ccc(C)cc3)[nH]n2c1=O,"inconclusive: 23.1 µM [inhibitor, single point]",

Compound,Potency,"activity change, negative = growth inhibition"
Cc1ccc(NC(=O)CCOc2ccccc2)c(C)c1,"inconclusive: 29.1 µM [inhibitor, single point]",
Cc1cc(C(=O)Cn2c(CO)nc3ccccc32)c(C)n1C,"inconclusive: 23.1 µM [inhibitor, single point]",
O=C(OCN1C(=O)c2ccccc2C1=O)C1CCCCC1,"inconclusive: 0.731 µM [inhibitor, full curve, poor fit]",
Cc1c(C(=O)N2CCCC2)oc2c1-c1nn(CC(=O)NCc3cccc(Br)c3)cc1CC2,"inconclusive: 20.6 µM [inhibitor, single point]",
COc1ccc(CN(C(=O)c2ccco2)c2ccc(C)cc2)cc1OC,"inconclusive: 11.6 µM [inhibitor, partial curve]",
O=c1c2ccccc2nc(SCc2cc(F)cc3c2OCOC3)n1Cc1ccco1,"inconclusive: 11.6 µM [inhibitor, partial curve]",
CCCC(=O)C1CCN(Cc2ccccc2)CC1,inactive,
Cc1ccccc1Cn1c(O)c(N=NC(=S)Nc2ccccc2F)c2ccccc21,active: 5.8 µM,
COc1ccc2nc(N3C(=O)C(O)=C(C(=O)c4ccco4)C3c3ccccc3OC)sc2c1 (stereo not given),"inconclusive: 18.4 µM [inhibitor, single point]",
Fc1ccccc1/C=N/Nc1nc2ccccc2o1,"inconclusive: 29.1 µM [inhibitor, single point]",
O=c1c(Cl)cc(Cl)nn1-c1ccccc1,active: 2.06 µM,
COc1ccc(NC(=O)CC(=O)Nc2ccc(OC)cc2)cc1,inactive,
O=c1cnc2cnc(OCc3ccccc3)nc2n1Cc1ccc(F)cc1,"inconclusive: 29.1 µM [inhibitor, single point]",
O=C(N/N=C/c1ccccc1)c1sccc1OCc1ccc(F)cc1,"inconclusive: 20.6 µM [inhibitor, partial curve, poor fit]",
CN(C)S(=O)(=O)Oc1ccc(C(=O)Nc2cccc(C(F)(F)F)c2)cc1,active: 23.1 µM,
O=c1[nH]c(Nc2ccc3c(c2)OCCO3)nnc1Cc1ccccc1,inactive,
CNC(=O)COC(=O)c1cccnc1SC,inactive,
Cc1ccnc(NC(=O)COc2ccc3oc4c(c3c2)CCCC4)c1,"inconclusive: 23.1 µM [inhibitor, single point]",
O=C(Cn1nnc(-c2ccc(CN3CCOCC3)cc2)n1)N(c1ccccc1)c1ccccc1,active: 18.4 µM,
COc1ccc(-c2c(C)[nH]n3c(=O)c(Cc4ccccc4)c(C)nc23)cc1,active: 13 µM,
Cc1ccc(S(=O)(=O)N2CCN(C(=O)COC(=O)/C=C/c3ccccc3[N+](=O)[O-])CC2)c(C)c1,"inconclusive: 25.9 µM [inhibitor, single point]",
CCCCN(Cc1ccccc1)C(=O)C1CCN(Cc2sccc2C)CC1,"inconclusive: 6.51 µM [inhibitor, single point]",
CCCCNc1nccnc1-c1cccc(C=O)c1,active: 18.4 µM,
Cc1ccc2c(c1)N(CCC(=O)NCc1cccs1)C(=O)C(C)O2 (stereo not given),"inconclusive: 6.51 µM [inhibitor, single point]",
CCc1nc2c(OCC(=O)c3ccc(F)cc3)cccn2c1N(C)C(=O)C(C)C,"inconclusive: 16.4 µM [inhibitor, single point]",
